Experimental findings from PubChem BioAssay AID1346428 (National Center for Advancing Translational Sciences (NCATS), 2018) are described below.

SMILES strings stand for the structures. Screen size: about 48,000 compounds; about 1,200 (2.5%) were called active. Another 2% or so got no clear call; they are omitted.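 The calls were made as follows: active = activation of at least 60% and not above a set upper limit (about 1 call in 100 departs from these limits); inconclusive = activation of 40% to 60%, or above that upper limit; inactive = activation under 40%.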 The list shows a part of the results.

Sequence of UniProt O75388 (O75388 whole entry, looked up): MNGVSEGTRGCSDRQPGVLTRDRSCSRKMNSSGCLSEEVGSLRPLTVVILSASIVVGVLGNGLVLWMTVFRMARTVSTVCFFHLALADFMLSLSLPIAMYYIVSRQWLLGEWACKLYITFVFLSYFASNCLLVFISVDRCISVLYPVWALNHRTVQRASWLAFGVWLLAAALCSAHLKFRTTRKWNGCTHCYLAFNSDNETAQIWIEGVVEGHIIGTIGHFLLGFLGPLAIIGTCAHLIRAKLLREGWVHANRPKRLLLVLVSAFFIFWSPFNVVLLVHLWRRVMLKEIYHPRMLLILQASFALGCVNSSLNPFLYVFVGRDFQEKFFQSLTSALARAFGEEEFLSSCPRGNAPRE

This assay addresses Probable G-protein coupled receptor 32 (Homo sapiens) (UniProt O75388). The assay is described as follows: qHTS for Agonists of Human Resolvin D1 Receptor DRV1. The following applies: CHO-K1 GPR32 beta-arrestin PathHunter luminescence, 90 min; at 76.9 µM; hits give high values; zero percent set by DMSO-only wells. An outline of the steps:
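Beta-arrestin recruitment read-out: luminescence from complemented beta-Gal in CHO-K1 GPR32 PathHunter cells, measured 1 h after detection reagent at ambient temperature following 90 min compound exposure at 37 °C; DMSO served as basal (EC0) control.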
In general terms: In qHTS, concentration-response curves come from the screen itself.
Turning to `COc1ccc(-c2noc(-c3ccc(N4CCN(c5ccc(OC)cc5)CC4)c([N+](=O)[O-])c3)n2)cc1`, the activation is inactive: -0.499%.
Regarding `CCOc1ccc(-n2nc(CO)c(C(=O)NCc3cccnc3)n2)cc1`, the activation is inactive: -1.31%.
`CC[N+](C)(CC)CCOC(=O)C1c2ccccc2Oc2ccccc21`: the activation is inactive: -17.3%.
As for `COc1cc(C)ccc1OCCCn1c(-c2ccc(Cl)cc2)nc2ccccc2c1=O`, the activation is inactive: 7.59%.
To `Cc1cccn2c(=O)c(C(=O)NCc3ccccc3Cl)c(O)nc12` belongs inactive: -11.1%; to `COc1cccc(N2CCN(C(=O)c3cc4c(=O)n(Cc5ccccc5)ccc4nc3C)CC2)c1`, inactive: 23.9%.
For `COC(=O)c1cccc(Cn2nnc3sc4c(c3c2=O)CCC(C(C)(C)C)C4)c1` (stereo not drawn), the activation was inactive: 11.2%.
Turning to `O=C(COc1ccccc1)NCCc1csc(-c2cccc(F)c2)n1`, the activation was inactive: 45.6%.
In the case of `COc1ccc(CCNC(=O)CCCCn2c(=O)c3ccccc3n(CC(=O)Nc3ccc(C)cc3C)c2=O)cc1OC`, the activation was inactive: 1.8%.
On to `Cc1ccc(C)c(Nc2nc(-c3ccccc3)c3cc(Br)ccc3n2)c1`, for which the activation was inactive: 15.7%.
Consider `CCN1C(=O)C(Cc2nc3ccccc3c(=O)n2-c2ccc(OC)cc2)c2cc(C)ccc21` (stereo not drawn), for which the activation was inactive: -20.2%.
Regarding `N#Cc1cccc(NC(=O)Cn2nc(Cc3ccncc3)c3ccccc3c2=O)c1`, the activation was inactive: -18.8%.
Regarding `Cc1cccc(N(C)C(CNS(=O)(=O)c2ccccc2)c2ccccc2)c1` (stereo not drawn), the activation was inactive: -3.36%.
As for `Cc1cccc(C(=O)Nc2cccc(OCc3cc(=O)n4cccc(C)c4n3)c2)c1`, the activation was inactive: -11%.
Consider `Cc1nnc(N2CCCC(C(=O)Nc3cccc(C(F)(F)F)c3)C2)c2nn(-c3ccccc3)c(C)c12` (stereo not drawn), for which the activation is inactive: 47.9%.
As for `O=C(Nc1cccc(Cl)c1)c1cc(-c2ccc3c(c2)OCCO3)on1`, the activation is inactive: 22.8%.
For `CCN(CC)CCNC(=O)C(=O)NCC(c1cccnc1)N1CCN(c2ccccc2)CC1` (stereo not drawn), the activation was inactive: -6.16%.
Turning to `Cc1cc(Sc2ccc(Cl)cc2)nc2ccccc12`, the activation is inactive: 0.791%.
On to `CC(C)(C)OC(=O)N1CCC(c2c(C(=O)NC3CCCCC3)cnn2-c2cccc(F)c2)CC1`, for which the activation was inactive: -7.85%.
Consider `O=C(CSc1ccccc1)NCc1ccc2c(c1)CCN2C(=O)c1ccc(Cl)cc1`, for which the activation was inactive: -22.1%.
With `O=C(COc1ccccc1)NCc1ccc2c(c1)CCN2C(=O)c1ccccc1`, the activation was inactive: -21.2%.
Regarding `Cn1nnnc1SCCNCc1ccc(OCc2ccccc2Cl)cc1`, the activation is inactive: 10.4%.
Turning to `CC(NC(=O)c1ccc(NC(=O)c2nsc3ccccc23)cc1)c1ccccc1` (stereo not drawn), the activation was inactive: -13.1%.
